The values below come from paper PMC9574860, “Chemical Toolkit for PARK7: Potent, Selective, and High-Throughput” (Journal of Medicinal Chemistry, 2022).

SMILES strings stand for the structures. Among all 7,900 compounds or so, about 400 (5.1%) showed an effect of 50% or more. This is one part of the list.

The target of this experiment is Parkinson's disease protein 7 (PARK7/DJ1) (human, UniProt Q99497). The experiment is described as follows: primary screen, percent inhibition; read as competition with a fluorescent probe by fluorescence polarization; higher = more effect of the substance. The following applies: 100 µM. The gist of the method: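 Fluorescence-polarization probe displacement (JYQ-107, 20 nM final, 2 h) after 2 h preincubation of PARK7 (0.2 μM final) with each fragment at 100 μM final. Read-out ex/em 480/520 nm; remaining activity derived from FP signal loss relative to reference controls.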
Chain of Parkinson's disease protein 7 (PARK7/DJ1) (Q99497 whole entry, looked up, the tested form may be a part): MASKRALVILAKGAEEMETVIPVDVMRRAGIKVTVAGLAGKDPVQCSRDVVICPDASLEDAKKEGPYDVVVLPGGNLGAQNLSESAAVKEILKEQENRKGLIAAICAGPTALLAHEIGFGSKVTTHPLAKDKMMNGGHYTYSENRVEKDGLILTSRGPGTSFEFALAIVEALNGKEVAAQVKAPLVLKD
Turning to `Cn1c(N)c(C(=O)CCl)c(=O)[nH]c1=O`, the Inhibition % stood at 45.2%.
The value for `Cc1cc(C)n(S(=O)(=O)N2CCCCC2)n1` was 7.02%; that for `Cc1cc(Cl)ccc1NC(=O)CCl` was 16.8%; that for `C=CC(=O)NC1CCN(c2ccccc2F)C1` (centres unmarked) was 9.68%.
The value for `CCC1(C)CN(C(=O)c2cccnc2S)CCO1` (centres unmarked) was 4.06%; that for `O=C(CCl)Nc1nc(-c2cccc([N+](=O)[O-])c2)cs1` was 14.8%.
Then `CC1(C)OB(c2ccc(Br)cc2)OC1(C)C`, with 5.6%; and `CN1CCN(Cc2ccc(F)cc2B2OC(C)(C)C(C)(C)O2)CC1`, with 6.52%.
For `Clc1ccccc1OCC1CO1` (centres unmarked), the Inhibition % is on record as 3.31%.
The value for `Cc1cc(C(=O)Nc2cccc(S(=O)(=O)F)c2)c(C(F)(F)F)o1` was 96.8%; that for `CNc1cccnc1C#N` was 10.4%.
Then `COCc1ccc(C=C(C#N)C(N)=O)cc1`, with 4.17%; and `CC(=O)NCc1cccc(N2CCC2=O)c1`, with 7.51%; and `CN(C)CCn1c(S)nc2ccccc2c1=O`, with 82.9%.
`Cc1ccc(S(=O)(=O)C(C#N)=Cc2ccc(C)o2)cc1`: the Inhibition % came out at 4.24%.
The value for `Cc1ccc(-c2nnc(SC3CC(C)OC3=O)o2)cc1` (centres unmarked) was 7.51%; that for `C=CC(=O)Nc1cc(Cl)cc2c1OCC2` was 7.15%; that for `CC1CC(NC(=O)Nc2ccc(C3CC3)nn2)C(=O)O1` (centres unmarked) was 8.07%.
The value for `COc1ccc(B2OC(C)(C)C(C)(C)O2)c(C#N)c1` was 7.16%.
Then `c1ccc2c(c1)CCCC2OCC1CO1` (centres unmarked), with 4.25%; and `C=CC(=O)N1CCc2c(cccc2OC)C1`, with 13.7%; and `Nc1ccc2nc(S)ccc2c1`, with 67.6%.
Turning to `N#Cc1ncn(CCC(=O)Nc2ccccc2Cl)n1`, the Inhibition % was found to be 15.8%.
Then `O=C(Cn1ncc2ccccc21)Nc1cccc(S(=O)(=O)F)c1`, with 94.6%; and `FC(F)(F)c1nnc(CCCCl)o1`, with 5.87%.
Then `CN(Cc1cccc(B(O)O)c1)C1CC1.Cl`, with 3.76%; and `COc1ccccc1C(=O)Nc1cccc(S(=O)(=O)F)c1`, with 4.59%.
Then `N[C@H]1CCN(C(=O)C=Cc2ccc3ccc(Cl)cc3n2)C1`, with 11.3%; and `CC1(O)CCC(Nc2ccc(C#N)nc2)CC1` (centres unmarked), with 1.91%.
With `CC(C)(C)OC(=O)N1CCC(B2OC(C)(C)C(C)(C)O2)C1` (centres unmarked), the Inhibition % is 1.29%.
Consider `CN(C(=O)c1ccc2c(=O)[nH]c(S)nc2c1)C1CCC1`, for which the Inhibition % is 10.1%.
As to `C=CC(=O)N[C@@H]1CCO[C@H]1C1CC1` (racemic), the Inhibition % was found to be 5.07%.
Then `N#CC(C(N)=O)=C1CCCCCC1`, with 5.19%; and `CC1CC(C)CN(C(=O)Cn2cnc(C#N)n2)C1` (centres unmarked), with 11.7%.
Then `CC1(C)C(=O)NC1c1ccco1` (centres unmarked), with 1.96%; and `C=CCNc1oc(-c2ccc(OC)cc2)nc1C#N`, with 1.47%.
The value for `c1ccc(CN2CCC3(CC2)CO3)cc1` was 6.87%; that for `CN(C)C(=O)Oc1ccnc2cc(Cl)ccc12` was 11%; that for `Cc1cccc2c(=O)[nH]c(C(Cl)=Cc3ccnn3C)nc12` was 6.42%.
In the case of `C=CC(=O)N1CCC(N2CCCC2=O)CC1`, the Inhibition % was 6.03%.
The value for `Cl.O=C(CCl)N1CCN(Cc2ccco2)CC1` was 20.2%; that for `CC12CO[B-](c3ncccc3Cl)(OC1)OC2.[Li+]` was 1.28%.
Then `CC(NC(=O)Cn1cnc(C#N)n1)c1ccccc1Cl` (centres unmarked), with 3.87%.
The value for `C=CC(=O)N(C)CC(=O)N[C@H]1CCc2cc(Cl)ccc21` was 9.39%; that for `C=CC(=O)NC1CCOC2(CCCC2)C1` (centres unmarked) was 4.69%.
Regarding `C=CC(=O)NC(C(C)C)C1(CO)CC=CC1` (centres unmarked), the Inhibition % worked out at 16.2%.
Then `O=C(CCl)NCCc1nc2ccccc2s1`, with 34.5%.
The value for `C=CC(=O)NC1CCCN(c2ccc(C)nn2)C1` (centres unmarked) was 8.27%.
Consider `CC(Cn1cccn1)NS(=O)(=O)C=Cc1ccccc1` (centres unmarked), for which the Inhibition % is reported as 6.68%.
Then `O=C1CCC(=O)N1CCCc1ccc(Cl)cc1`, with 3.23%.
Then `O=C(C1CCOCC1)N1CCC(CS(=O)(=O)F)CC1`, with 20.1%.
The value for `Cc1cc2nccnc2cc1B1OC(C)(C)C(C)(C)O1` was 1.47%; that for `O=C(Oc1ccc2c(c1)CCC2)N1CCOCC1` was 0.585%.
`N#Cc1cncc(Cl)n1`: the Inhibition % came out at 8.35%.
Then `C=CC(=O)Nc1ccc(O)c(C(=O)O)c1`, with 7.4%; and `C=CC(=O)N1CCN(c2nccc(C(F)(F)F)n2)CC1`, with 1.23%.
The value for `Clc1ccc(C2CO2)cc1` (centres unmarked) was 10.2%.
The value for `C=CC(=O)N1CCCC2(CCCC2)CC1` was 15.7%; that for `CC1CN(C(=O)C=Cc2ccnc3ccccc23)CCN1` (centres unmarked) was 5.15%; that for `N#Cc1ncccc1-n1cccn1` was 4.45%.
Take `C=CC(=O)N1C2CCC1C(CO)C2` (centres unmarked): the Inhibition % was determined as 5.32%.
On to `CC(C)(C)OC(=O)NCc1cccc(B2OC(C)(C)C(C)(C)O2)c1`, for which the Inhibition % worked out at 10.2%.
On to `C=CC(=O)N1CCS(=O)(=O)CC(C)C1` (centres unmarked), for which the Inhibition % is 7.14%.
Then `C=CC(=O)NCC1CC(C)(C)C1`, with 11.3%; and `N#Cc1ccccc1NS(=O)(=O)C=Cc1ccccc1`, with 8.21%; and `N#CC1(CCl)CCCC1`, with 3.71%.
For the molecule `Cc1cccc2cc(B(O)O)sc12`, the Inhibition % came out at 37.2%.
The value for `C=CC(=O)N1CCCC(S(C)(=O)=O)C1` (centres unmarked) was 4.21%; that for `Cc1nn(C)c(C)c1NC(=O)CCl` was 11.3%; that for `C=CC(=O)NC1COc2c1ccc(C)c2C` (centres unmarked) was 6.65%.
For the molecule `N#Cc1c(Cl)nc(N)n1-c1ccccc1`, the Inhibition % is listed as 4.52%.
Regarding `Cc1cccnc1NC(=O)CCl.Cl`, the Inhibition % turned out to be 28.9%.
The value for `N#Cc1cc(OC2CCC2)ccn1` was 2.96%; that for `Cc1ncsc1CCCl` was 6.62%; that for `Cc1cc(F)c(C(=O)CCl)cc1F` was 5.49%.
Then `C=CC(=O)NCc1cccc(C(F)(F)F)c1`, with -0.162%; and `N#Cc1nccnc1NC1CC=CCC1` (centres unmarked), with 2.1%.
Then `COc1cc(C=C(C#N)c2nc(C)cs2)ccc1O`, with -184%.
Take `Cl.O=C(CCl)Nc1ccc(CN2CCOCC2)cc1`: the Inhibition % is recorded as 40.1%.
Regarding `O=C(O)CCN1CCSC1=O`, the Inhibition % is listed as 2.95%.
Then `O=C(C=Cc1ccncc1)N1CCN(c2nccs2)CC1`, with 14.9%; and `Cn1cc(CN2C[C@H](F)C[C@H]2C(N)=O)cc1C#N`, with 7.61%.
For `Cc1ccc(S(=O)(=O)n2nc(C)cc2C)c(C)c1`, the Inhibition % stood at 5.09%.
Then `CS(=O)(=O)OC1CCOC2(CCCC2)C1` (centres unmarked), with 9.92%; and `C=CC(=O)Nc1ccc2c(c1)NC(=O)CO2`, with 7.6%; and `NC(=O)c1ccccc1NS(=O)(=O)C=Cc1ccccc1`, with 4.95%.
Then `N#CC(=Cc1ccsc1)C(=O)NCc1ccccc1`, with 18%.
The value for `C=CC(=O)NC(C)(C)C1CCCCO1` (centres unmarked) was 9.38%.
In the case of `COC(=O)C1CC(S(=O)(=O)F)CN1C(=O)c1cccs1` (centres unmarked), the Inhibition % is listed as 11%.
Then `OC1(CC2CO2)CCC1` (centres unmarked), with 5.65%.
Consider `C=CC(=O)NCC1CC12CCOCC2` (centres unmarked), for which the Inhibition % is 10.7%.
The value for `Cc1nc(C=CC(=O)N2CCOCC2)cs1` was -0.955%.
Then `O=c1oc2cc(OCC3CO3)ccc2c2c1CCC2` (centres unmarked), with 10.6%; and `N#Cc1ncn(CC(=O)N2CCCCCC2)n1`, with 13.4%.
Then `CCc1ccc(C(C)NC(=O)Cn2cnc(C#N)n2)cc1` (centres unmarked), with 1.36%; and `Cc1cccc(NC(=O)CN2CCSC2=O)c1`, with 7.14%.
Take `C=CC(=O)N1CCC[C@@H]1CS(C)(=O)=O`: the Inhibition % is on record as 8.71%.
Then `CC(C)C(C)NS(=O)(=O)C=Cc1ccccc1` (centres unmarked), with 5.76%; and `Cn1c(=O)n(CCS(=O)(=O)F)c2cnccc21`, with 16.5%; and `NC(=O)CCN(C(=O)CCl)c1ccccc1`, with 67.4%.
The value for `CN1C2CCC1CC(Nc1cccnc1C#N)C2` (centres unmarked) was 5.48%.
The value for `C=CC(=O)N(CC)C1CCS(=O)(=O)C1` (centres unmarked) was -4.06%.
Turning to `C#CC(=O)Nc1cc2ccccc2cc1C(=O)O`, the Inhibition % was 29.8%.
Then `CCc1[nH]nc(NC(=O)c2cccnc2S)c1C`, with 3.97%.
Consider `O=C(CCl)Nc1ccc(F)c(F)c1F`, for which the Inhibition % worked out at 32.8%.
Then `CCOc1ccc(S(=O)(=O)n2ccc(C)n2)cc1C`, with 2.71%; and `Cc1cc(C)n(S(=O)(=O)c2ccc(C)c(C)c2)n1`, with 3.92%.
As to `CC(C)OCCCn1c(S)nc2ccccc2c1=O`, the Inhibition % is 3.79%.
Turning to `Cc1cc(NC(=O)CCl)on1`, the Inhibition % is listed as 21.5%.
The value for `CN(Cc1cc(F)c(F)c(F)c1)c1nccnc1C#N` was 13.9%.
`c1nsnc1OCC1CO1` (centres unmarked): the Inhibition % turned out to be 8.09%.
Then `N#CC(=Cc1ccc(O)cc1)C(=O)N1CCCC1`, with 9.17%; and `Cc1cc(-n2c(C)cc(C=C(C#N)C(=O)O)c2C)no1`, with 7.71%.
For `OB(O)c1ccc(OCC2CCCCO2)cc1` (centres unmarked), the Inhibition % is given as 27.9%.
Then `C=CC(=O)Nc1cnc2onc(C)c2c1`, with 10.7%; and `CC1CN(C(=O)CN2CCSC2=O)CCO1` (centres unmarked), with 0.792%; and `C=CC(=O)Nc1ccc(C2CC2)nn1`, with 9.64%.
As for `Cc1csc(C(C#N)=Cc2cccc3c2OCCCO3)n1`, the Inhibition % came out at 1.3%.
The value for `Cc1n[nH]c(C)c1B1OC(C)(C)C(C)(C)O1` was 4.89%; that for `CN(CC(=O)O)S(=O)(=O)C=Cc1ccccc1` was -4.62%; that for `C=CC(=O)N(C)CC(=O)Nc1cc(C)on1` was 7.52%.
Turning to `CC(C)NC(=O)C(C#N)=Cc1ccccc1`, the Inhibition % came out at 10.9%.
Then `O=S(=O)(F)CCc1ccccc1`, with 4.21%; and `CN1Cc2cc(C(=O)CCl)ccc2NC1=O`, with 11.5%.
Then `CCC(=O)N1CCCN(c2ccc(C#N)nc2)CC1`, with -4.41%.
